According to US7160888B2, “[1,8]naphthyridin-2-ones and related compounds for the treatment of schizophrenia” (Warner Lambert Company LLC, priority 2003, dated 2007):

Target: dopamine D2 receptor (Homo sapiens, UniProt P14416)
Experiment: biochemical
Details: D2 Ki (nM), Table 1; 0.4 nM [3H]spiperone, CHO-hD2L membranes

UniProt P14416, sequence (P14416 whole entry): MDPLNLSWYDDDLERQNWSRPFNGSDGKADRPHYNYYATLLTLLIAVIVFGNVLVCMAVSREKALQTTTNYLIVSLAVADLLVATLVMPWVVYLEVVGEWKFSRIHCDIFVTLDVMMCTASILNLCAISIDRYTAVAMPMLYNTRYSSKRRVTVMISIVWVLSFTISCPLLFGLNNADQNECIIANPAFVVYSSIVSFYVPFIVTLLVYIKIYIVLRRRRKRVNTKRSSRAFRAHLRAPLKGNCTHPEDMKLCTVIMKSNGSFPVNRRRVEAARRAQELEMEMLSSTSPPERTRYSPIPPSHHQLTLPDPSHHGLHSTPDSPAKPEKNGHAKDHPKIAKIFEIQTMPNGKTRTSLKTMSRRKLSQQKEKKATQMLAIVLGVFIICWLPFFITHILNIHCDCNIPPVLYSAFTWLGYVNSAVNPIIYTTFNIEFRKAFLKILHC

Row | Structure (SMILES) | Ki [nM]
1 | O=C1CCc2ccc(OCCCCN3CCN(c4ccc(F)cc4Cl)CC3)nc2N1 [Example A9, 7-{4-[4-(2-Chloro-4-fluoro-phenyl)-piperazin-1-yl]-butoxy}-3,4-dihydro-1H-[1,8]naphthyridin-2-one] | 5.5
2 | O=c1ccc2ccc(OCCCCN3CCN(c4ccc(F)cc4Cl)CC3)nc2[nH]1 [Example B23, 7-{4-[4-(2-Chloro-4-fluoro-phenyl)-piperazin-1-yl]-butoxy}-1H-[1,8]naphthyridin-2-one] | 2.5
3 | O=c1ccc2ccc(OCCCCN3CCN(c4cccc5cc(F)c(F)cc45)CC3)nc2[nH]1 [Example B55, 7-{4-[4-(6,7-Difluoro-naphthalen-1-yl)-piperazin-1-yl]-butoxy}-1H-[1,8]naphthyridin-2-one] | 1
4 | CC1CC(=O)Nc2nc(OCCCCN3CCN(c4cccc(Cl)c4Cl)CC3)ccc21 (single isomer, unassigned) [Example D2a, 7-{4-[4-(2,3-Dichloro-phenyl)-piperazin-1-yl]-butoxy}-4-methyl-3,4-dihydro-1H-[1,8]naphthyridin-2-one] | 2.9
5 | Cc1cc(OCCCCN2CCN(c3cccc4ccccc34)CC2)nc2c1CCC(=O)N2 [Example E10, 5-Methyl-7-[4-(4-naphthalen-1-yl-piperazin-1-yl)-butoxy]-3,4-dihydro-1H-[1,8]naphthyridin-2-one] | 1
6 | CC(=O)c1cccc(N2CCN(CCCCOc3ccc4c(n3)NC(=O)CC4)CC2)c1 [Example A33, 7-{4-[4-(3-Acetyl-phenyl)-piperazin-1-yl]-butoxy}-3,4-dihydro-1H-[1,8]naphthyridin-2-one] | 15.5
7 | O=C1CCCc2c1cccc2N1CCN(CCCCOc2ccc3ccc(=O)[nH]c3n2)CC1 [Example B42, 7-{4-[4-(5-Oxo-5,6,7,8-tetrahydro-naphthalen-1-yl)-piperazin-1-yl]-butoxy}-1H-[1,8]naphthyridin-2-one] | 8.5
8 | O=c1ccc2ccc(OCCCCN3CCN(c4cccc5c4CC(F)(F)CC5)CC3)nc2[nH]1 [Example B39, 7-{4-[4-(7,7-Difluoro-5,6,7,8-tetrahydro-naphthalen-1-yl)-piperazin-1-yl]-butoxy}-1H-[1,8]naphthyridin-2-one] | 1
9 | O=C1COc2ccc(OCCCCN3CCN(c4cccc5ccc(F)cc45)CC3)nc2N1 [Example G7, 6-{4-[4-(7-Fluoro-naphthalen-1-yl)-piperazin-1-yl]-butoxy}-4H-pyrido[3,2-b][1,4]oxazin-3-one] | 0.8
10 | CC(C)Oc1ccc(Cl)cc1N1CCN(CCCCOc2ccc3c(n2)NC(=O)CC3)CC1 [Example A25, 7-{4-[4-(5-Chloro-2-isopropoxy-phenyl)-piperazin-1-yl]-butoxy}-3,4-dihydro-1H-[1,8]naphthyridin-2-one] | 1
11 | O=C1CCc2cccc(N3CCN(CCCCOc4ccc5c(n4)NC(=O)CC5)CC3)c2C1 [Example A56, 7-{4-[4-(7-Oxo-5,6,7,8-tetrahydro-naphthalen-1-yl)-piperazin-1-yl]-butoxy}-3,4-dihydro-1H-[1,8]naphthyridin-2-one] | 2.5
12 | COc1ccnc(N2CCN(CCCCOc3ccc4ccc(=O)[nH]c4n3)CC2)n1 [Example B31, 7-{4-[4-(4-Methoxy-pyrimidin-2-yl)-piperazin-1-yl]-butoxy}-1H-[1,8]naphthyridin-2-one] | 69.5
13 | Cc1c(F)ccc(N2CCN(CCCCCc3ccc4c(n3)NC(=O)CC4)CC2)c1Cl [Example C15, 7-{5-[4-(2-Chloro-4-fluoro-3-methyl-phenyl)-piperazin-1-yl]-pentyl}-3,4-dihydro-1H-[1,8]naphthyridin-2-one] | 32
14 | O=C1CCc2ccc(OCCCCN3CCN(c4cccc5c4C(=O)C(F)(F)CC5)CC3)nc2N1 [Example A54, 7-{4-[4-(7,7-Difluoro-8-oxo-5,6,7,8-tetrahydro-naphthalen-1-yl)-piperazin-1-yl]-butoxy}-3,4-dihydro-1H-[1,8]naphthyridin-2-one] | 0.6
15 | CC(=O)c1cccc2c(N3CCN(CCCCOc4ccc5c(n4)NC(=O)CC5)CC3)cccc12 [Example A80, 7-{4-[4-(5-Acetyl-naphthalen-1-yl)-piperazin-1-yl]-butoxy}-3,4-dihydro-1H-[1,8]naphthyridin-2-one] | 23.5
16 | O=C1CCc2ccc(OCCCCN3CCN(c4ccccc4-c4ccccc4)CC3)nc2N1 [Example A11, 7-[4-(4-Biphenyl-2-yl-piperazin-1-yl)-butoxy]-3,4-dihydro-1H-[1,8]naphthyridin-2-one] | 6.5
17 | O=C1CCc2ccc(OCCCCN3CCN(c4ccccc4)CC3)nc2N1 [Example A39, 7-[4-(4-phenyl-piperazin-1-yl)-butoxy]-3,4-dihydro-1H-[1,8]naphthyridin-2-one] | 7.9
18 | O=C1CCc2ccc(OCCCCN3CCN(c4cccc5cc(Cl)ccc45)CC3)nc2N1 [Example A76, 7-{4-[4-(6-Chloro-naphthalen-1-yl)-piperazin-1-yl]-butoxy}-3,4-dihydro-1H-[1,8]naphthyridin-2-one] | 8.7

Same assay, conditions: D2 Ki (nM), Table 2; 0.4 nM [3H]spiperone, CHO-hD2L membranes

Row | Structure (SMILES) | Ki [nM]
19 | O=c1ccc2ccc(OCCCCN3CCN(c4cccc5sccc45)CC3)nc2[nH]1 [Example B25′, 7-[4-(4-Benzo[b]thiophen-4-yl-piperazin-1-yl)-butoxy]-1H-[1,8]naphthyridin-2-one] | 1
20 | CC1(C)Cc2cccc(N3CCN(CCCCOc4ncc5ccc(=O)[nH]c5n4)CC3)c2O1 [Example G8′, 2-{4-[4-(2,2-Dimethyl-2,3-dihydro-benzofuran-7-yl)-piperazin-1-yl]-butoxy}-8H-pyrido[2,3-d]pyrimidin-7-one] | 2.5
21 | O=c1ccc2ccc(OCCCCN3CCN(c4cccc5ccc(=O)[nH]c45)CC3)nc2[nH]1 [Example B36′, 7-{4-[4-(2-Oxo-1,2-dihydro-quinolin-8-yl)-piperazin-1-yl]-butoxy}-1H-[1,8]naphthyridin-2-one] | 12.9
22 | O=C1CCc2ccc(OCCCCN3CCN(c4cccc5nc(C(F)(F)F)[nH]c45)CC3)nc2N1 [Example A31′, 7-{4-[4-(2-Trifluoromethyl-3H-benzoimidazol-4-yl)-piperazin-1-yl]-butoxy}-3,4-dihydro-1H-[1,8]naphthyridin-2-one] | 0.6
23 | CN1C(=O)CCc2cccc(N3CCN(CCCCOc4ccc5ccc(=O)[nH]c5n4)CC3)c21 [Example B38′, 7-{4-[4-(1-Methyl-2-oxo-1,2,3,4-tetrahydro-quinolin-8-yl)-piperazin-1-yl]-butoxy}-1H-[1,8]naphthyridin-2-one] | 3
24 | CCN1CCCc2c1cccc2N1CCN(CCCCOc2ccc3c(n2)NC(=O)CC3)CC1 [Example A33′, 7-{4-[4-(1-Ethyl-1,2,3,4-tetrahydro-quinolin-5-yl)-piperazin-1-yl]-butoxy}-3,4-dihydro-1H-[1,8]naphthyridin-2-one] | 17.3
25 | CC1(C)CC(=O)Nc2nc(OCCCCN3CCN(c4cccc5c4OCCC5)CC3)ccc21 [Example C6′, 7-[4-(4-Chroman-8-yl-piperazin-1-yl)-butoxy]-4,4-dimethyl-3,4-dihydro-1H-[1,8]naphthyridin-2-one] | 1.4
26 | CC1(C)CC(=O)Nc2nc(OCCCCN3CCN(c4cccc5c4NC(=O)CC5)CC3)ccc21 [Example C3′, 4,4-Dimethyl-7-{4-[4-(2-oxo-1,2,3,4-tetrahydro-quinolin-8-yl)-piperazin-1-yl]-butoxy}-3,4-dihydro-1H-[1,8]naphthyridin-2-one] | 7
27 | O=c1ccc2ccc(OCCCCN3CCN(c4cccc5c4OCCC5)CC3)nc2[nH]1 [Example B1′, 7-[4-(4-Chroman-8-yl-piperazin-1-yl)-butoxy]-1H-[1,8]naphthyridin-2-one] | 1
28 | O=C1CCc2ccc(OCCCCN3CCN(c4cccc5nccnc45)CC3)nc2N1 [Example A44′, 7-[4-(4-Quinoxalin-5-yl-piperazin-1-yl)-butoxy]-3,4-dihydro-1H-[1,8]naphthyridin-2-one] | 18.6
29 | CC1(C)CC(=O)Nc2nc(OCCCCN3CCN(c4cccc5ccoc45)CC3)ccc21 [Example C5′, 7-[4-(4-Benzofuran-7-yl-piperazin-1-yl)-butoxy]-4,4-dimethyl-3,4-dihydro-1H-[1,8]naphthyridin-2-one] | 3
30 | CC1(C)CC(=O)Nc2nc(OCCCCN3CCN(c4cccc5ccc(=O)[nH]c45)CC3)ccc21 [Example C4′, 4,4-Dimethyl-7-{4-[4-(2-oxo-1,2-dihydro-quinolin-8-yl)-piperazin-1-yl]-butoxy}-3,4-dihydro-1H-[1,8]naphthyridin-2-one] | 18.4
31 | O=C1CCc2ccc(OCCCCN3CCN(c4cccc5c4OC(F)(F)C(F)(F)O5)CC3)nc2N1 [Example A18′, 7-{4-[4-(2,2,3,3-Tetrafluoro-2,3-dihydro-benzo[1,4]dioxin-5-yl)-piperazin-1-yl]-butoxy}-3,4-dihydro-1H-[1,8]naphthyridin-2-one] | 1.4
32 | O=C1CCc2ccc(OCCCCN3CCN(c4cccc5ncccc45)CC3)nc2N1 [Example A35′, 7-[4-(4-Quinolin-5-yl-piperazin-1-yl)-butoxy]-3,4-dihydro-1H-[1,8]naphthyridin-2-one] | 1.4
33 | O=c1ccc2ccc(OCCCCN3CCN(c4cccc5c4OCCO5)CC3)nc2[nH]1 [Example B12′, 7-{4-[4-(2,3-Dihydro-benzo[1,4]dioxin-5-yl)-piperazin-1-yl]-butoxy}-1H-[1,8]naphthyridin-2-one] | 2
34 | O=C1CCc2cnc(OCCCCN3CCN(c4cccc5c4OCCO5)CC3)cc2N1 [Example H5′, 7-{4-[4-(2,3-Dihydro-benzo[1,4]dioxin-5-yl)-piperazin-1-yl]-butoxy}-3,4-dihydro-1H-[1,6]naphthyridin-2-one] | 5.5
35 | O=c1ncc2ccc(OCCCCN3CCN(c4cccc5c4OCCC5)CC3)nc2[nH]1 [Example E1′, 7-[4-(4-Chroman-8-yl-piperazin-1-yl)-butoxy]-1H-pyrido[2,3-d]pyrimidin-2-one] | 1
36 | O=C1COc2ccc(OCCCCN3CCN(c4cccc5cccnc45)CC3)nc2N1 [Example F2′, 6-[4-(4-Quinolin-8-yl-piperazin-1-yl)-butoxy]-4H-pyrido[3.2-b][1,4]oxazin-3-one] | 2.4
37 | Cc1ccc2cccc(N3CCN(CCCCOc4ncc5ccc(=O)[nH]c5n4)CC3)c2n1 [Example G9′, 2-{4-[4-(2-Methyl-quinolin-8-yl)-piperazin-1-yl]-butoxy}-8H-pyrido[2,3-d]pyrimidin-7-one] | 5.5
